Test results taken from PubChem BioAssay (NCATS).
Values joined by “and” are separate entries in the source; they are usually repeats but may differ in a detail not shown here. Equal values may be shown once. The inconclusive results got no clear call from the source; some entries with a clear call stand among them for comparison. Where the call is inconclusive, the potency comes from a doubtful curve fit. Active and inactive are the calls of the source. Calls follow the shape of the dose curve; as a rule, active = well fitted curve in the direction sought with a large enough effect; inconclusive = small, poorly fitted or top-dose-only effect, or another doubt; inactive = no such curve, though single readings can be large; an effect the other way counts as inactive or inconclusive.

Test: qHTS of pediatric cancer cell lines to identify multiple opportunities for drug repurposing: Primary screen for NB1643 cells (AID 1347099); also: nearly all actives have a fitted effect of over 50% in size;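 as to activity change, negative = cytotoxic: plate controls were DMSO neutral control for no effect and bortezomib positive control for full effect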
Conditions: NB1643 neuroblastoma viability, CellTiter-Glo luminescence, 48 h; series mostly up to 46 µM
In short: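 Luminescence from CellTiter-Glo served as readout of metabolically active cells after 48 h compound exposure. Titrations: MIPE 11-point, from 0.78 nM; NPC 8-point, from 0.59 nM (final). Concentration-response curves came straight from the primary screen.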
Potency is read from the fitted curve at half-maximal effect; tags tell the direction and shape of the fitted curve.

Row | SMILES | Potency
1 | N#CC(C#N)=Cc1ccc(O)c(O)c1 | inactive
2 | C=C1C[C@H]2[C@H]3CCC(=O)[C@@]3(C)CC[C@@H]2[C@@]2(C)C=CC(=O)C=C12 | inconclusive: 23.5 µM [cytotoxic, partial curve]
3 | C[C@H](CN1CCOCC1)C(C(=O)N1CCCC1)(c1ccccc1)c1ccccc1 | inconclusive: 37.3 µM [cytotoxic, partial curve]
4 | O=C(O)c1nn(Cc2ccc(Cl)cc2Cl)c2ccccc12 | inconclusive: 0.0187 µM [cytotoxic, full curve, poor fit]
5 | c1ccc2c(c1)OCC(C1=NCCN1)O2 (stereo not drawn) | active: 23.7 µM
6 | CC[C@H]1C[C@@H]2C[C@H]3c4[nH]c5ccc(OC)cc5c4CCN(C2)[C@@H]13 | inactive
7 | CC1Sc2c(C(=O)O)c(=O)c3cc(F)c(N4CCNCC4)cc3n21 (stereo not drawn) | inconclusive: 59.6 µM [cytotoxic, partial curve, poor fit]
8 | COP(=S)(OC)SCN1C(=O)c2ccccc2C1=O | inconclusive: 23.7 µM [cytotoxic, single point]
9 | CCOC(=O)c1cncn1[C@H](C)c1ccccc1 | inactive
10 | COC1=C[C@@H]2[C@@H]3Cc4ccc(OC)c(O)c4[C@]2(CCN3C)CC1=O | active: 5.9 µM
11 | COc1cc(C[C@@H](C)N)c(OC)cc1C | inactive
12 | CN(C)CCN(C)CCc1ccc(Cl)c(Cl)c1 | inconclusive: 20.9 µM [cytotoxic, single point]
13 | COc1ccc(Cc2nccc3cc(OC)c(OC)cc23)cc1OC | inconclusive: 26.4 µM [cytotoxic, single point]
14 | CC(C)(C)c1cc(C=C(C#N)C#N)cc(Br)c1O | active: 4.69 µM
15 | O=S(=O)(F)Cc1ccccc1 | inactive
16 | Cn1cc(C2=C(c3cn(C4CCN(Cc5ccccn5)CC4)c4ccccc34)C(=O)NC2=O)c2ccccc21 | inconclusive: 4.18 µM [cytotoxic, full curve]
17 | C#C[C@]1(O)CC[C@H]2[C@@H]3CCC4=CC(=O)CCC4=C3C=C[C@@]21CC | inconclusive: 2.66 µM [cytotoxic, single point]
18 | C=C[C@@H]1CN2CCC1C[C@H]2[C@H](O)c1ccnc2ccccc12 (stereo partly drawn) | inconclusive: 16.6 µM [cytotoxic, partial curve]
19 | NCC1(CC(=O)O)CCCCC1 | inconclusive: 33.2 µM [cytotoxic, single point]
20 | O=C1C=CC[C@@H]2[C@H]3CCCN4CCC[C@@H](CN12)[C@@H]34 | inconclusive: 16.6 µM [cytotoxic, partial curve]

Test: qHTS of pediatric cancer cell lines to identify multiple opportunities for drug repurposing: Primary screen for LAN-5 cells (AID 1347100);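 as to activity change, negative = cytotoxic: plate controls were DMSO neutral control for no effect and bortezomib positive control for full effect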
Conditions: LAN-5 neuroblastoma viability, CellTiter-Glo luminescence, 48 h; activity change, negative = cytotoxic: at 46 µM (top of the series) unless noted
In short: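 Viability after 48 h compound treatment at 37C, 500-1,000 cells/well, read as ATP luminescence with CellTiter-Glo. Primary screens used 11-point (MIPE, 0.78 nM-46 µM) or 8-point (NPC, 0.59 nM-46 µM) final concentrations; follow-up screens used 11-point dilutions.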

Row | SMILES | Potency | activity change, negative = cytotoxic
21 | N#CC(C#N)=Cc1ccc(O)c(O)c1 | inconclusive: 33.5 µM [cytotoxic, single point] | 
22 | C[C@H](CN1CCOCC1)C(C(=O)N1CCCC1)(c1ccccc1)c1ccccc1 |  | inconclusive: -38.6% [cytotoxic] [at 155 µM]
23 | c1ccc2c(c1)OCC(C1=NCCN1)O2 (stereo not drawn) | active: 26.6 µM | 
24 | CC[C@H]1C[C@@H]2C[C@H]3c4[nH]c5ccc(OC)cc5c4CCN(C2)[C@@H]13 | inconclusive: 30 µM [cytotoxic, partial curve] | 
25 | O=P1(N(CCCl)CCCl)NCCCO1 (stereo not drawn) | inconclusive: 20.9 µM [cytotoxic, partial curve, poor fit] | 
26 | COP(=S)(OC)SCN1C(=O)c2ccccc2C1=O | inactive | 
27 | COC1=C[C@@H]2[C@@H]3Cc4ccc(OC)c(O)c4[C@]2(CCN3C)CC1=O | inconclusive: 33.2 µM [cytotoxic, single point] | 
28 | COc1ccc(Cc2nccc3cc(OC)c(OC)cc23)cc1OC | inconclusive: 33.5 µM [cytotoxic, single point] and inconclusive: 29.6 µM [cytotoxic, single point] | 
29 | CC(C)(C)c1cc(C=C(C#N)C#N)cc(Br)c1O | inconclusive: 33.2 µM [cytotoxic, single point] | 
30 | O=C(O)CCCc1ccc(N(CCCl)CCCl)cc1 | active: 9.44 µM and inconclusive: 26.4 µM [cytotoxic, single point] | 
31 | CN1C[C@H](CNC(=O)OCc2ccccc2)C[C@@H]2c3cccc4c3c(cn4C)C[C@H]21 | inconclusive: 16.8 µM [cytotoxic, single point] | 
32 | O=C1C=CC[C@@H]2[C@H]3CCCN4CCC[C@@H](CN12)[C@@H]34 | inconclusive: 18.7 µM [cytotoxic, partial curve] | 

Test: qHTS of pediatric cancer cell lines to identify multiple opportunities for drug repurposing: Primary screen for BT-12 cells (AID 1347101); also: nearly all actives have a fitted effect of over 25% in size;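 as to activity change, negative = cytotoxic: plate controls were DMSO for no effect and bortezomib positive control for full effect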
Conditions: BT-12 viability, CellTiter-Glo luminescence, 48 h; series mostly up to 57.3 µM
In short: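 Cells (500-1,000/well) rested 5 h, then received compounds for 48 h; metabolically active cells were measured by CellTiter-Glo luminescence. Final concentrations spanned up to 46 µM (MIPE, 11-point) or 0.59 nM-46 µM (NPC, 8-point) in primary screens, 11-point in follow-ups.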

Row | SMILES | Potency
33 | C=C1C[C@H]2[C@H]3CCC(=O)[C@@]3(C)CC[C@@H]2[C@@]2(C)C=CC(=O)C=C12 | inconclusive: 24.3 µM [cytotoxic, partial curve]
34 | C[C@H](CN1CCOCC1)C(C(=O)N1CCCC1)(c1ccccc1)c1ccccc1 | inconclusive: 54.6 µM [cytotoxic, single point]
35 | c1ccc2c(c1)OCC(C1=NCCN1)O2 (stereo not drawn) | active: 19.5 µM
36 | CC[C@H]1C[C@@H]2C[C@H]3c4[nH]c5ccc(OC)cc5c4CCN(C2)[C@@H]13 | inconclusive: 78.3 µM [cytotoxic, single point]
37 | Clc1ccc(C(OCCN2CCCCC2)c2ccccc2)cc1 (stereo not drawn) | inconclusive: 27.6 µM [cytotoxic, single point]
38 | CC(CC(C#N)(c1ccccc1)c1ccccc1)N(C)C (stereo not drawn) | inconclusive: 56.3 µM [cytotoxic, single point]
39 | CC1(N2CCC(n3c([C@@H]4CCCNC4)nc4ccccc43)CC2)CCCCCCC1 | inconclusive: 24.3 µM [cytotoxic, partial curve]
40 | COc1cc(C[C@@H](C)N)c(OC)cc1C | inconclusive: 0.0038 µM [cytotoxic, full curve]
41 | CN(C)CCN(C)CCc1ccc(Cl)c(Cl)c1 | inactive
42 | COc1ccc(Cc2nccc3cc(OC)c(OC)cc23)cc1OC | inconclusive: 3.89 µM [cytotoxic, full curve] and inconclusive: 34.3 µM [cytotoxic, single point]
43 | O=S(=O)(CC1CS1)c1ccc(Oc2ccccc2)cc1 (stereo not drawn) | inconclusive: 24.3 µM [cytotoxic, partial curve]
44 | Cn1cc(C2=C(c3cn(C4CCN(Cc5ccccn5)CC4)c4ccccc34)C(=O)NC2=O)c2ccccc21 | inconclusive: 15.3 µM [cytotoxic, partial curve]
45 | C#C[C@]1(O)CC[C@H]2[C@@H]3CCC4=CC(=O)CCC4=C3C=C[C@@]21CC | inconclusive: 19.5 µM [cytotoxic, single point]
46 | C=C[C@@H]1CN2CCC1C[C@H]2[C@H](O)c1ccnc2ccccc12 (stereo partly drawn) | inconclusive: 38.5 µM [cytotoxic, single point]
47 | CN1C[C@H](CNC(=O)OCc2ccccc2)C[C@@H]2c3cccc4c3c(cn4C)C[C@H]21 | active: 15.5 µM
48 | O=C1C=CC[C@@H]2[C@H]3CCCN4CCC[C@@H](CN12)[C@@H]34 | inconclusive: 21.7 µM [cytotoxic, partial curve, poor fit]
